Source: paper doi:10.1101/577437 (bioRxiv, 2019)

Columns and labels:
[1] = molecular target: HRAS wild-type (residues 1-171) (UniProt P01112); assay: NMR titration
NRAS (residues 1-172) = NRAS (residues 1-172) (UniProt P01111); assay: NMR titration

binding result [1]: binds
binding result (NRAS (residues 1-172)): binds
B1: human BRAF RBD ([…]) (domain or fragment)
chain: not shown
